# PubChem BioAssay AID1745845 (National Center for Advancing Translational Sciences (NCATS), 2022)
# Among all 360,000 compounds or so, about 2,600 (0.72%) were called active. The shares of active, inactive and inconclusive entries below differ from those in the screen. The call rests on the fitted dose curve; in most records, active means well fitted inhibition curve with a large enough effect; inconclusive means small, poorly fitted or top-dose-only effect; inactive means no such curve, though single readings can be large or run the other way. A potency beside an inconclusive call is a rough fit, not a confirmed value.
# Test: Primary qHTS for Inhibitors of ATXN expression; further: nearly all actives have a fitted effect of over 55% in size
# Conditions: HEK-293 ATXN2-luciferase reporter, luminescence, 24 h; activity change, negative = inhibition: at 57 µM (top of the series)
# Procedure, shortened: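 qHTS (up to 57 uM final) was run with 24 h compound exposure of reporter cells at 37 °C. Each well was multiplexed: SteadyGlo luminescence measured ATXN2-luciferase expression after a fluorogenic Gly-Phe-AFC viability readout (25 uM final).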
# On the % scale 0 is the no-effect control and ±100 the full control effect; potency means the concentration at half of the fitted maximal effect; tags describe the fitted curve by direction and shape.
SMILES,Potency,"activity change, negative = inhibition"
Cc1cc(N(CCO)CCO)ccc1C(c1ccc(N(CCO)CCO)cc1C)c1ccccc1Cl,"inconclusive: 31.6 µM [inhibitor, single point]",–
CSc1nc(NCC(C)C)c2c3c(sc2n1)CN(C)CC3,–,inactive: 2.9%
CCOc1ccc2[nH]c3c(N4CCN(C(=O)c5ccco5)CC4)ncnc3c2c1,"inconclusive: 10 µM [inhibitor, partial curve, poor fit]",–
Cc1ccc2c(CC(=O)NNC(=O)c3ccccc3O)coc2c1,"inconclusive: 2.51 µM [inhibitor, single point]",–
O=C(C1=C[C@H](c2ccccc2)C[C@H](OCc2ccc(CO)cc2)O1)N1CCN(Cc2ccc3c(c2)OCO3)CC1,"inconclusive: 31.6 µM [inhibitor, single point]",–
CCN(CC)C(=O)CSc1nc2ccccc2c(=O)n1CCC(=O)NCCc1ccc(OC)c(OC)c1,–,inactive: -25.2%
NC(=S)NN=C1CCCC(C(F)(F)F)C1 (stereo not given),"inconclusive: 25.1 µM [inhibitor, partial curve, poor fit]",–
Cc1ccc(S(=O)(=O)Nc2ccccc2F)cc1C(=O)NNC(=O)c1ccccc1O,"inconclusive: 11.2 µM [inhibitor, partial curve, poor fit]",–
CCCCNC(=O)CCC(=O)Nc1ccc2nc(N3CCOCC3)cc(C)c2c1,–,inactive: 42.5%
COc1ccc(CCNC(=O)CCc2c(C)nc3cc(-c4ccc(Cl)cc4)nn3c2C)c(OC)c1,"inconclusive: 17.8 µM [inhibitor, partial curve, poor fit]",–
CCOC(=O)N1CCN(c2ncc3c(n2)CC(c2ccc(OC)c(OC)c2)CC3=O)CC1 (stereo not given),–,inactive: -6.99%
Cc1nc2cc(S(=O)(=O)N(C)C)ccc2n1-c1ccccc1,–,inactive: 3.14%
CCC(CC)C(=O)N(C)c1c(C)nc2c(OCc3cccc(Cl)c3)cccn12,"inconclusive: 39.8 µM [inhibitor, partial curve, poor fit]",–
Cc1cc(C(=O)COC(=O)c2ccccc2O)c(C)n1CC1CCCO1 (stereo not given),active: 0.355 µM,–
O=C(CSC1=NCCS1)Nc1nc2ccccc2s1,–,inactive: 48%
O=c1c2c(nc3cc(-c4ccc(F)cc4)[nH]n13)CCCC2,"inconclusive: 17.8 µM [inhibitor, single point]",–
CC(=O)c1cccc(NC(=O)c2ccc(N(Cc3ccc(C)cc3)S(C)(=O)=O)cc2)c1,"inconclusive: 39.8 µM [inhibitor, single point]",–
CCOC(=O)c1ccc2nc(Nc3nc4ccc(F)cc4s3)sc2c1,"inconclusive: 31.6 µM [inhibitor, partial curve, poor fit]",–
COc1ccc2c(c1)c1ccccc1n2C,–,inactive: -2.52%
C/C(=N\Nc1ccc2nncn2n1)c1ccco1,–,inactive: 5.06%
Clc1ccc(/C=N/Nc2nc(Cl)nc3ccccc23)cc1,–,inactive: 48.3%
CSc1nn(CC(=O)Nc2ccc(C)cc2C)c(N)c1S(=O)(=O)c1ccc(Cl)cc1,"inconclusive: 39.8 µM [inhibitor, single point]",–
Cc1nc(N2CCN(c3ccccc3O)CC2)c2c(-c3ccccc3)csc2n1,"inconclusive: 22.4 µM [inhibitor, single point]",–
Nc1nc2c(ncn2[C@@H]2O[C@H](CNCc3cnc(N4CCOCC4)s3)[C@@H](O)[C@H]2O)c(=O)[nH]1,–,inactive: 13.3%

SMILES,Potency,"activity change, negative = inhibition"
Cc1ccc(NS(=O)(=O)c2ccc3nc(-c4ccccc4)[nH]c3c2)cc1Cl,"inconclusive: 39.8 µM [inhibitor, single point]",–
CCc1ccc(NC(=S)N2CCN(c3cccc(C(F)(F)F)c3)CC2)cc1,"inconclusive: 22.4 µM [inhibitor, single point]",–
COCCCNC(=O)C1CCN(Cc2cc3ccccc3n2Cc2cccc(Cl)c2)CC1,"inconclusive: 22.4 µM [inhibitor, single point]",–
O=C(Nc1cc(S(=O)(=O)Nc2ccc(Cl)cc2)ccc1N1CCCCC1)c1ccc(F)cc1,"inconclusive: 31.6 µM [inhibitor, single point]",–
CC1=NOC(=O)/C1=C\c1ccc(-c2cccc(Cl)c2)o1,"inconclusive: 39.8 µM [inhibitor, single point]",–
Cc1ccc(S(=O)(=O)Nc2ccc(Br)cc2/C=N/n2cnnc2)cc1,"inconclusive: 39.8 µM [inhibitor, partial curve, poor fit]",–
CCOC(=O)c1cc(-c2ccc(OC)cc2F)nc2c1c(C)nn2CCC#N,–,inactive: 0.991%
c1ccc(-c2oc3ncnc(NC[C@@H]4CCCO4)c3c2-c2ccccc2)cc1,"inconclusive: 43.2 µM [inhibitor, single point]",–
CC(NCc1ccc2c(c1)n(C)c(=O)n2C)c1ccccc1 (stereo not given),–,inactive: -9.61%
COc1cc(NC(=O)CSc2cc(=O)n(C)c3ccccc23)cc(OC)c1OC,–,inactive: -1.03%
C[C@H](NC(=O)c1nc[nH]c1C(=O)N[C@@H](C)c1ccccc1)C(=O)OC(C)(C)C,–,inactive: 10.6%
CCCc1nc2c(c(=O)c3ccccc3n2C)c(=O)n1C1CCCCCC1,"inconclusive: 28.2 µM [inhibitor, partial curve]",–
CC(O)CNCCCOc1ccc(Cl)cc1C(C)(C)C (stereo not given),active: 33.6 µM,–
Cc1cccc(N2CCN(C(=O)CCc3nc4ccccc4[nH]3)CC2C)c1 (stereo not given),"inconclusive: 37.7 µM [inhibitor, partial curve, poor fit]",–
CC(=O)O/N=C/c1c(N2CCOCC2)n(C)c2ccccc12,"inconclusive: 8.91 µM [inhibitor, single point]",–
Oc1ccccc1/C=N/NC(=S)NC1CC2CC1C1C=CCC21 (stereo not given),–,inactive: -13.4%
CC(C)C[C@H](NC(=O)c1nc[nH]c1C(=O)NC(c1ccccc1)c1ccccc1)C(=O)OC(C)(C)C,"inconclusive: 39.8 µM [inhibitor, single point]",–
Cc1ccc(NC(=O)c2ccc3c(c2)OCCO3)nc1,"inconclusive: 17.8 µM [inhibitor, single point]",–
Cc1ccc(S(=O)(=O)N2CCCCC2)cc1NC(=O)CSc1ncnc2ccccc12,"inconclusive: 39.8 µM [inhibitor, single point]",–
CCC(=O)Nc1cc(OC)c(NC(=O)c2ccccc2)cc1OC,–,inactive: -0.655%
O=[N+]([O-])c1ccc(Sc2cccc[n+]2[O-])c2nonc12,active: 5.32 µM,–
N/C(=N\OC(=O)c1ccccc1Cl)c1ccncc1,–,inactive: 64.6%
Cc1onc(-c2ccccc2)c1C(=O)N/N=C/c1ccco1,–,inactive: 0.642%
COc1ccc(-c2nnc(CSc3nc4ccccc4c(=O)n3C)o2)cc1OC,–,inactive: -24.5%

SMILES,Potency,"activity change, negative = inhibition"
COc1ccc(Sc2nc(-c3ccccn3)ncc2OC)cc1,active: 22.4 µM,–
CC(/C=N/NC(=O)c1cc(-c2ccc(Cl)cc2)nc2ccccc12)=C\c1ccco1,–,inactive: 1.49%
CCOc1[nH]n(-c2ccc(Cl)cc2)c(=O)c1C=Nc1ccc(OC)cc1,"inconclusive: 31.6 µM [inhibitor, partial curve, poor fit]",–
CCCNC(=O)c1cc2c(c(-c3cccc(-c4ccccc4F)c3)n1)[C@@H](CCO)N(C(=O)CC1CC1)C2,"inconclusive: 28.2 µM [inhibitor, single point]",–
CCc1ccc(OCCSc2nc3ccccc3n2CC(=O)N2CCCCC2)cc1,"inconclusive: 25.1 µM [inhibitor, single point]",–
Cc1cc(CNC(=O)COc2ccc(F)cc2Cl)cc(C)c1O,–,inactive: -14.2%
CCc1ccc(NC(=O)C2CCN(S(=O)(=O)c3ccc4c(c3)NC(=O)CO4)CC2)cc1,"inconclusive: 39.8 µM [inhibitor, partial curve, poor fit]",–
COc1cccc(Cn2nc(SC)c(S(=O)(=O)c3ccccc3)c2N(C(C)=O)C(C)=O)c1,–,inactive: -29.8%
O=C(NC(CSCc1ccccc1)C(=O)N/N=C/c1ccc(O)cc1O)c1ccc([N+](=O)[O-])cc1 (stereo not given),active: 3.16 µM,–
COc1ccc(-c2coc3c(C(=O)NCc4ccco4)cccc23)c(C)c1,"inconclusive: 25.1 µM [inhibitor, single point]",–
Cn1c(SCC(=O)NNC(=O)c2ccccc2)nnc1C1CC1,–,inactive: 2%
CC(C)c1ccccc1OCC(=O)Nc1cc(S(=O)(=O)N2CCOCC2)ccc1N1CCCC1,–,inactive: -17.8%
COc1ccc(CS(=O)/C(Cl)=C(/Cl)C(=O)Nc2ccc(OC)nc2)cc1 (stereo not given),active: 2.12 µM,–
O=C(Nc1nc(-c2ccccn2)cs1)c1ccco1,"inconclusive: 20 µM [inhibitor, single point]",–
CCOc1ccc(C(=O)C2CCN(CC(=O)Nc3ccccc3N3CCOCC3)CC2)cc1,"inconclusive: 31.6 µM [inhibitor, single point]",–
Cc1ccc(S(=O)(=O)NCCNc2ccc([N+](=O)[O-])cc2C(F)(F)F)cc1,–,inactive: -11.5%
C[C@H](NC(=O)c1nc[nH]c1C(=O)N[C@@H](Cc1ccccc1)C(=O)OC(C)(C)C)c1ccccc1,"inconclusive: 39.8 µM [inhibitor, single point]",–
CC(=O)/C(=N\Nc1ccccc1Cl)Sc1cccc2cccnc12,"inconclusive: 15 µM [inhibitor, partial curve]",–
CCN(C(=O)c1ccc2c(Cl)c3c(nc2c1)CCC3)c1ccc(C)c(C)c1,"inconclusive: 26.7 µM [inhibitor, single point]",–
CCOC(=O)C1CCCCN1C(=O)CCc1c(C)nc2cc(-c3ccccc3)nn2c1C (stereo not given),"inconclusive: 1.78 µM [inhibitor, full curve]",–
O=C(Nc1ccc(Oc2ccccc2)cc1)C1CCN(c2c3c(nc4ncnn24)CCC3)CC1,"inconclusive: 25.1 µM [inhibitor, single point]",–
Cc1ccc(SCCNC(=O)c2ccc(C)c(S(=O)(=O)Nc3ccccc3C)c2)cc1,"inconclusive: 25.1 µM [inhibitor, single point]",–
